Measurements taken from article PMC10726135.
The other results are listed elsewhere or left out. At the low end of the ranking the order means little. Measured with an extract: partners may take part in the binding.

target: T1, HNF4alpha2 (COS-7 nuclear extract) (UniProt P41235); assay: protein-binding microarray; conditions: COS-7 nuclear extract on double-stranded Agilent 4x180k PBM; binding buffer, salt, pH and temperature not given; high values mean tight binding; double strand, one strand shown; sequences stand for … in …GCCTAGGGAGATTAGAGTATCGGTCGA
T1 sequence: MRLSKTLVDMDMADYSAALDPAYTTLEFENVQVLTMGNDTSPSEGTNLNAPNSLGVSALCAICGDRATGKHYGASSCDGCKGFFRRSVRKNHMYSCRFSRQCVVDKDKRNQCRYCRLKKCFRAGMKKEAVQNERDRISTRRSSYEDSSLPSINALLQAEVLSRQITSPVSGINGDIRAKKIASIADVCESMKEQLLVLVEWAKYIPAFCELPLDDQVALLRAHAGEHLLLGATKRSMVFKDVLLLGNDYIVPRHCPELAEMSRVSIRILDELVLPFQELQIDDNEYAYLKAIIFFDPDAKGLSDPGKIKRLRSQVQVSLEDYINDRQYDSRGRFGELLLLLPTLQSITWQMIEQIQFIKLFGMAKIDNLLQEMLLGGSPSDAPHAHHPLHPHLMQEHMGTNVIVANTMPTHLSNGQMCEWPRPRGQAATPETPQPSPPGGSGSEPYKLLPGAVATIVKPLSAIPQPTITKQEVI

Row | Sequence | binding signal (log2 normalized intensity)
1 | ACCCCTCCACTGGACAGCAGCTACATAAGG | 0.986
2 | AGGTGACTTGCCCAGACACACCTGCAATGG | -1.04
3 | TAGAAAAGAGTTAAAAAAAAAAAAAACTAT | -1.12
4 | ATTAATATATTCATAACACTTGTATGACCT | 3.17
5 | GAGTTAATGCTGGAGTTAAAGCTTTGAGGA | 0.404
6 | GAAACATCCACATGTGGGTCCAAAGAACAT | 3.1
7 | CACTGCAGGATTGGAGATCTGAACTCAAGC | 0.366
8 | TCGCCTCCACCTGCACCATTCTTGTCCTTT | 2.4
9 | TTTCCCTGGTCGACCTCCCCGTCACCCTCC | 4.15
10 | CACAGGATTTAAAGAATTCCAGACAATCTG | -1.18
11 | CTACCTTTGGACTTCTCATTACATGGGACA | 2.31
12 | CTGCTTCGGCCTTTGACCTCGTGATAACGA | 5.41
13 | GCAAGACTTTGGCCCTGCAGACTTTGCCTC | 3.39
14 | GATGAAGGTTATTCTTTCCCCTCCCTTCCA | 3.36
15 | CTGCCTTGGAGGTGAGGGTTACAGGTGGAC | 1.72
16 | AGTTCAGGAGGGAGGAGCATTTCACAGAAA | -1.07
17 | GCTGAGAGATTCCTCTGCACAATAAAACTT | -1.21
18 | AATCTCTCATCTGCCTTGTGATTTCCAAAA | 0.602
19 | TGGAAACAACTGTGCAGGTGACAGAATTCC | -1.06
20 | TTTCAAGAATCTAATCAGGCCTCCCTCCCT | 3.7
21 | GCAAAGGTTAGCAAGGGCCCCCACTAGAGA | 0.79
22 | AAAGAACCATGAGAGGGTTAAAAACCAGAA | -0.923
23 | AAATAAGAATGACCAGGAGTTTGGGATCAG | -0.444
24 | GACTAGCCACAATAGGCCCTCCCAGCCTAT | -0.691

Row | Sequence | binding signal (log2 normalized intensity)
25 | GGTTGTGTTTGCAGTGAGTAACCTTGAGGA | 1.83
26 | ATGTTCCCACGAAACCCTAAACCTGCAAAC | -1.18
27 | TGTTATCAGTTAATTGCATTCTTTGATGTG | 1.95
28 | AAAGGAATGCGCCTGAACTGACTGCATTCC | -1.01
29 | AAATGCAGGTGAGAGGCCTCTAAGCATAAC | -1.2
30 | CCTTCCCTTTCATGTTGAACGTCTTCAGAA | 1.49
31 | AAGGAAGAGGGAAGACCAAAGGCCAAAGAG | -1.16
32 | CAAGTTACACAAGTAGAATGAAAGCGGCTC | -0.675
33 | CCAGCAGCTCCAGGAGACGTAGAGATAAGG | -1.16
34 | CTCTGAGCTTCATCCTGACCATCTGCGAAA | -0.953
35 | ACCCTCAGGAACCAAGCATTTTGCAAGTTC | -1.05
36 | CTGAGGTGGGAGGATCGCTTGAGCCTGGGA | -0.722
37 | TCTTGTAATCTGCTTCCAGTTCCATAATCC | 1.25
38 | AGTGGGAGTTACACTATCGGCTTCCCTGGT | -0.916
39 | GATAATAAGTGACCCAGGAGGAGAAGGGTG | -1.05
40 | TCATGGCTCACTGCACCTTGACCTCCTGGG | 4.99
41 | GAGGTGTTCGGGGGACGGAGAGCAGGGCGT | -0.964
42 | ACATTCATCTGAGACTAACTGCATTTTGGA | 1.36
43 | ATGCCCCATGGTAAGAACTACAGTTGACCT | 4.18
44 | AATGTGATAAGAATTTTGTGCAATTACACA | -0.0257
45 | TACTGAAAATGACCTTTGTTCCCTGCACTT | 7.15
46 | GGTCACAAGAGGTGCTGTGTGCCTGAGAAT | -1.08
47 | AAGGAACTCCATCCTCACTTTAGGTGCTCT | -0.705
48 | TGCTGACCTTTAAGCCTATAGTTTCTGTTT | 2.74

Row | Sequence | binding signal (log2 normalized intensity)
49 | ACTGTAAACATCTAATGAACTGATTAGAAC | -0.441
50 | TAAAGATAAGAACGCTAGACACTGGGGACT | -1.2
51 | AAGAACACAGCGCAGCACACTGCAGCGGCA | -1.14
52 | AGAGCAGGAATTCTGATCTTTGACCTCTCC | 7.34
53 | TGGTGGCTTGAGTTGGAGAAGAGCAAAGAT | -0.197
54 | AGTGCCAGAGCTGTGAAGACTGCAGCAAAG | -1.08
55 | GACTCAAATCCAAGCTGGCTGGCTTTAGAG | -1.11
56 | TGTCCTGAGTTATTGGAAGAATGGAATTGC | 1.37
57 | GTAACTCTGGGTCTGAGACCAAAGTCCAGA | 5.65
58 | GCACTAAGCCGAACGCTGGGGCAAAGGTTT | 1.75
59 | ATCGGTAAATACGAATAATCATATCTGCCT | -1.11
60 | ACAGGATCAATAAAAGGTCCAGAGTTCACT | 3.59
61 | ACGGCGCTGACGCCGCCTCTGCCTCTTGAC | -1.21
62 | GCTGAAGGGAAGGCTGCCGTCCTCAGTGAA | -1.2
63 | AGCCAAGTTTTGCAACATACTGAAAAAGGG | -1.19
64 | GCAGAAACAAATACAGACACACCTAGGGAG | -1.2
65 | AACTCTCAGTTTGGCTCTTATGTCCCTCCT | 1.35
66 | AGAGGCCTGGGAATGCCTAGGGGGAAGCCC | -1.16
67 | CTTTGCCCCCAGCCTCTCACAGTAGCCCAG | 4.6
68 | AAACCAACACCAGCAACCGCCTACCTTTGG | -1.12
69 | TGGCCTGGTTCCTTCTCAGTGACAAAAACA | 1.21
70 | CCTTTGAACCAGAGAAGATTCCAGAGGGAG | -1.07
71 | CAGATCAAAGGACATTTCTAAAAATAGCCT | -1.04
72 | GCTGGTTGCCCCTTTGACCCTCGGGCCTCC | 5.62
